Experimental data from PubChem BioAssay AID1159614 (National Center for Advancing Translational Sciences (NCATS), 2016).
The whole screen tested about 45,000 compounds, of which about 65 (0.1%) were called active. Calls come from the whole dose curve; as a rule, active = well fitted activation curve with a large enough effect; inconclusive = small, poorly fitted or top-dose-only effect; inactive = no such curve, though single readings can be large or run the other way. The list shows a part of the results.

Target: Galactocerebrosidase (Homo sapiens) (UniProt P54803)
UniProt P54803, sequence (P54803 whole entry, looked up): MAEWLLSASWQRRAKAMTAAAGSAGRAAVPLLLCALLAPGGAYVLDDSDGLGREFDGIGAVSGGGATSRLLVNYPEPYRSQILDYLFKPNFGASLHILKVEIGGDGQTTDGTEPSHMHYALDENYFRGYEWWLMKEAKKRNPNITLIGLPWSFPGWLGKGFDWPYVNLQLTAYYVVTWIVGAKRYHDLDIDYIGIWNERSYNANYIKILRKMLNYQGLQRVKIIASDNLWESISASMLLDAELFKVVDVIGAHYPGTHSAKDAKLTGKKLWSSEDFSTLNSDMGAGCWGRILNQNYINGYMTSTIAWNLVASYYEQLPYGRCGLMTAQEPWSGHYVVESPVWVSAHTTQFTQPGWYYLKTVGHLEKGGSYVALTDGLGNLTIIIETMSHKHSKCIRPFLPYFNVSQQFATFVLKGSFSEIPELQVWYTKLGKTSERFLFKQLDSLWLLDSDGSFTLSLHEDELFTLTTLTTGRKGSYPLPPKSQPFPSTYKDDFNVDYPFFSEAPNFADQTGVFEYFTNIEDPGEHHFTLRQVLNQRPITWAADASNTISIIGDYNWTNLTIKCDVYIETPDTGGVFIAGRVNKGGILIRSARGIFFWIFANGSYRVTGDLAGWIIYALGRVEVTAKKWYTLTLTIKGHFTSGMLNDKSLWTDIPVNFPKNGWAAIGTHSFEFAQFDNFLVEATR
Assay: A Novel Cell-Based Assay to Identify Small Molecules for B -Galactocerebrosidase; note: 0% is about no effect; nearly all actives have a fitted effect of over 65% in size
Conditions: 145M-Twi-hGALC-G270D cells (Twitcher mouse brain line with human GALC G270D), HMU-beta-Gal fluorescence, 48 h; series mostly up to 57.5 µM; activation: at the top concentration
In short: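 Live 145M-Twi cells (Twitcher mouse brain-derived, GALC-null) stably expressing human GALC-G270D, with a wild-type GALC line, were compound-treated. Residual GALC activity was then read as fluorescence from 0.1 mM final HMU-β-gal at pH 5.2; higher signal means activation.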

activation, inactive:
Cc1ccc(NC(=O)c2sc3nc[nH]c(=O)c3c2C)cc1Cl 7.57%
Cc1ccc(NC(=O)Cn2c(=O)oc3ccccc32)cc1C 0.473%
Cc1ccc(OC(=O)CSc2nnc(-c3cccs3)o2)cc1C 3.01%
CCOc1ccc(-n2c(SCC(=O)N3CCCCCC3)nc3c([nH]c4ccccc43)c2=O)cc1 1.56%
CC(C)COC(=O)c1ccc(N)cc1 -15.3%
CCn1cc(C(=O)NCCc2ccc(OC)c(OC)c2)c(=O)c2cc(S(=O)(=O)N3CCC(C)CC3)ccc21 -18.2%
COC(=O)c1c(NC(=O)c2cc(OC)c(OC)c(OC)c2Br)sc2c1CCC(C)C2 (stereo not drawn) -11.8%
Cc1c(Cl)cccc1-n1ncc(C(=O)NCc2cccs2)c1C1CCN(C(=O)OC(C)(C)C)CC1 -13.5%
COc1ccc(CNC(=O)c2ccc3nc(CCc4ccccc4)oc3c2)c(OC)c1 -8.97%
CC(C)CNc1ncnc2c1nnn2C -5.06%
O=C(CCNS(=O)(=O)c1cccc2nsnc12)NCc1ccccc1 -9.08%
CNC(=O)Cn1c(=O)c2cccn2c2ccc(F)cc21 -18.6%
COc1ccc(CNC(=O)CCn2nc(C)c3c(C)n(-c4ccccc4)nc3c2=O)c(OC)c1 -4.79%
Cc1cccc(NC(=O)c2cc(S(=O)(=O)N3CCN(c4ccccc4F)CC3)ccc2F)c1C -1.68%
COc1cc(C2c3c(-c4ccc(C)cc4)n[nH]c3C(=O)N2c2ccc(F)cc2)ccc1O (stereo not drawn) 2.85%
Cc1cc(C)c(NC(=O)Cn2c(=O)nc(-c3ccccc3)c3cc(Cl)ccc32)c(C)c1 -14%
CC(C)(C)c1ccc(CN(Cc2ccco2)c2cnc(S(C)(=O)=O)nc2C(=O)Nc2ccc(F)cc2)cc1 -4.69%
COc1cc(NC(=O)N2CCC3(CC2)Nc2cc(F)ccc2-n2cccc23)cc(OC)c1OC -13.8%
N#C/C(=C/c1cn(Cc2ccccc2Cl)c2ccccc12)C(=O)Nc1cccc(Cl)c1 -16.9%
COc1ccc(OC)c(C2C(C(=O)N3CCCCC3)=C(C)Nc3nc4ccccc4n32)c1 (stereo not drawn) -12.2%
CCc1ccc(-c2nn(CC(=O)Nc3ccccc3C)c3c2cnc2ccc(C)cc23)cc1 -11.2%
O=C(CSc1nc(-c2ccc(F)cc2)[nH]c1-c1ccccc1)Nc1ccccc1 -4.03%
Clc1ccc(OCc2nc3ccccc3n2Cc2ccccc2)c(Cl)c1 -44%
CCc1cccc(CC)c1-n1nnc2c(sc3nc(C)cc(C)c32)c1=O -37%
Cc1cc(=O)n(Cc2cccc(F)c2)c2c1c(C)nn2-c1cccc(F)c1 -18.7%
Cc1ccccc1CN1c2ccccc2-c2nc(SCC(N)=O)ncc2S1(=O)=O -3.52%
Cc1cccc(-c2nc(CSCC(=O)NCCc3ccc(Cl)cc3)c(C)o2)c1 -16%
Cc1ccc(CNC(=O)c2ccc(-c3nc(CS(=O)c4ccccc4)c(C)o3)cc2)cc1 (stereo not drawn) -21%
Cc1ccc(C)c(NC(=O)CN2C(=O)c3cccnc3Oc3ccc(C)cc32)c1 -10%
Cc1ccc(-c2nn(CC(=O)NC3CCCC3)c3c2cnc2ccccc23)cc1 -16.8%
COc1cc(/C=C/c2nc(C#N)c(NCCc3ccccc3)o2)cc(OC)c1OC -10.9%
CC(C)(C)C1CCc2c(sc3nnn(CCOc4ccccc4)c(=O)c23)C1 (stereo not drawn) -12%
Cc1ccc(C)c(NC(=O)c2nn(C)c3c2CS(=O)(=O)c2ccccc2-3)c1 -6.17%
COc1cc(NC(=O)c2nc3ccccc3nc2N2CCCCC2)cc(OC)c1OC -14.3%
CCOC(=O)N1CCc2c(sc3c2c(=O)n(CCc2ccccc2)c(=O)n3CC(=O)Nc2cccc(C)c2)C1 1.16%
O=C1N(c2ccccc2)c2ccccc2C1(Cc1ccncc1)Cc1ccncc1 -7.8%
COCCn1ccc2c(OCC(=O)Nc3ccccc3F)cccc2c1=O -4.04%
Cc1cc(C)n(-c2nc3cc(Cl)ccc3nc2Nc2ccc(CC(=O)O)cc2)n1 -11.3%
COc1ccc2nc(NC(=O)c3nc(SCc4ccccc4F)ncc3Cl)sc2c1 -10.8%
COC(=O)c1c(-c2cccs2)csc1NC(=O)c1ccc(OC)c(OC)c1 -10.2%
Cc1cccc(NC(c2ccccc2C)c2ccc3ccc(C)nc3c2O)n1 (stereo not drawn) -13.1%
CCNC(=O)C1CCN(c2nnc(C)c3c(C)n(-c4ccc(OC)cc4)nc23)CC1 -9.93%
COc1ccccc1CNC(=O)C1CCN(S(=O)(=O)c2ccc3c(ccn3C)c2)CC1 -14.2%
CCCCn1c(NCc2cc(Br)ccc2O)nc2ccccc21 -10.1%
COc1ccc(CNC(=O)Cn2nc(N3CCN(c4ccccc4)CC3)ccc2=O)c(OC)c1 -15%
Cc1ccc(-c2nc(CS(=O)(=O)CC(=O)NCCc3ccccc3)c(C)o2)cc1 -15.8%
Cc1ccc2c(c1)NC(=O)c1cccnc1O2 -0.44%
COc1ccc(S(=O)(=O)c2c(SC)nn(CC(=O)Nc3cccc(C)c3C)c2N)cc1 -12.7%
Cc1cccc(OCC(O)Cn2c(=N)n(CCN3CCCCC3)c3ccccc32)c1 (stereo not drawn) -12.7%
CCC(C)NC(=O)CSc1nc2c(sc3ccccc32)c(=O)n1CCc1ccc(OC)c(OC)c1 (stereo not drawn) -17.4%
CCN(CC)c1nc2c(S(=O)(=O)c3cccc(Cl)c3)nnn2c2ccsc12 -12.2%
CCn1cc(C(=O)NCc2ccc(C)cc2)c(=O)c2cc(S(=O)(=O)N(C)C3CCCCC3)ccc21 -6.22%
CCc1ccc(CN(Cc2ccco2)C(=O)COc2ccc(Cl)c(C)c2)cc1 -38.4%
CCC(C)Nc1oc(-c2ccc(COc3ccc(Cl)cc3)o2)nc1C#N (stereo not drawn) -10.7%
CC1=C(C(=O)Nc2ccccc2)C(c2ccncc2)n2nc(SCc3ccccc3F)nc2N1 (stereo not drawn) -3.58%
O=C(Nc1ccc(OCc2cc(=O)n3ccccc3n2)cc1)c1ccccc1Cl -9.4%
COc1cccc(OCc2cc(=O)n3c(-c4ccccc4)csc3n2)c1 -11.2%
COc1nc(-c2ccccc2)ccc1-c1noc(-c2ccccc2Br)n1 -11.7%
O=C(O)CNC(=O)c1ccccc1I -10.9%
CCN1CCN(C(=O)Cn2c(-c3cccs3)cc3ccccc32)CC1 -12.8%
O=C(CN1C(=O)COc2ccc(S(=O)(=O)N3CCCC3)cc21)N1CCN(c2cccc(C(F)(F)F)c2)CC1 8.87%
CCOc1ccccc1CNC(=O)CCc1c(C)nn(-c2ccc(N3CCOCC3)nn2)c1C -9.07%
CCN(CC)S(=O)(=O)c1ccc(C(=O)NCCSc2c(-c3ccc(C)cc3)[nH]c3ccccc23)cc1 -1.6%
COc1ccc(N2CCN(S(=O)(=O)CCNC(=O)COc3ccccc3F)CC2)cc1 -15.5%
COc1ccc(CCNC(=O)c2ccc3c(c2)N(Cc2ccccc2F)C(=O)c2ccccc2S3=O)cc1OC (stereo not drawn) -5.72%
COC(=O)c1cccc(NC(=O)c2nsc3ccccc23)c1 4.14%
Cc1cn2c(=O)cc(COC(=O)c3cccc(NC(=O)COc4ccccc4C)c3)nc2s1 -1.03%
Cc1ccc(NC(=O)CCNS(=O)(=O)c2cccc3nonc23)cc1Cl -23.6%
Cc1ccccc1C(=O)NCCc1csc(-c2ccc(C(F)(F)F)cc2)n1 -8.37%
Cc1ccccc1N1C(=O)c2cc(S(N)(=O)=O)c(Cl)cc2NC1C (stereo not drawn) -7.23%
COc1ccc(-n2c(-c3ccc(C)cc3)cc3c2CC(C)(C)CC3=O)c(OC)c1 -14.6%
Cc1ccc(Cc2nc3ccccc3nc2SCC(=O)N2CCCc3ccccc32)cc1 -20%
CCOC(=O)CSc1nc(-c2ccc(Cl)cc2)cc(C(F)(F)F)c1C#N -8.77%
Cc1ccc(C(=O)Oc2c(S(=O)(=O)c3ccccc3)c(C)nn2-c2ccccc2)cc1 2.16%
CN1C(=O)c2ccccc2Sc2ccc(NC(=O)NCc3cccc(Cl)c3)cc21 -15.2%
CC[C@H](NC(C)C)[C@H](O)c1ccc(O)c2[nH]c(=O)ccc12 -8.62%
O=c1oc2cc(O)ccc2cc1-c1nnc(Nc2ccccc2F)s1 -13.1%
Cc1c(-c2nc(-c3ccccc3F)no2)nnn1-c1cc(F)ccc1F -6.9%
Cc1ccc(CNC(=O)CSc2c3c(nc4cc(Cl)ccc24)CCCC3)cc1 -6.22%
CCCNC(=O)C(C)n1nc(C)c2c(C)n(-c3ccccc3)nc2c1=O (stereo not drawn) -13.6%
CC(C)(C)C1CCc2c(sc(NC(=O)c3cccc(Cl)c3)c2C(N)=O)C1 (stereo not drawn) -17.5%
Cc1c(C(=O)OC2CCCC2)[nH]c2c1C(=O)CC(c1ccc(C(C)(C)C)cc1)C2 (stereo not drawn) -16%
COc1cccc(CNC(=O)CN2C(=O)CSc3ccc(S(=O)(=O)N(C)C)cc32)c1 -19.9%
Cc1ccc(-c2nc3sccn3c2Nc2ccccc2C)cc1 -14.5%
CC1CCN(C(=O)c2cnn(-c3ccc(Cl)cc3)c2C2CCN(C(=O)OC(C)(C)C)CC2)CC1 -14.1%
Cc1cccc(N2CCN(C(=O)c3nn(C)c4c3CSc3ccccc3-4)CC2C)c1 (stereo not drawn) -10.1%
CSCCC(NS(=O)(=O)c1ccc2c(c1)oc(=O)n2C)C(=O)N1CCN(c2cc(Cl)ccc2C)CC1 (stereo not drawn) -18.9%
Cc1cc2c(cc3c(SCc4ccc(Cl)cc4)nnc(C)n32)o1 -9.28%
CCN(CCCNC(=O)c1cc2cc3cc(OC)ccc3nc2s1)c1cccc(C)c1 -17.1%
COc1ccc(NC(=O)CSc2oc(-c3ccc(C)cc3)nc2S(=O)(=O)c2ccc(C)cc2)c(OC)c1 -13.1%
CCC(=O)Oc1c(Sc2ccc(Cl)cc2)c(C)nn1C(C)(C)C -28.3%
Cc1ccc2nc(-c3ccncc3)c(Nc3ccccc3C)n2c1 -11.7%
CC1=C(c2ccc(C)cc2)S(=O)(=O)N=C1N1CCN(c2ccccc2)CC1 -14.4%
CCC(C)NC(=O)c1cn(CC)c2ccc(S(=O)(=O)N3CCCCC3)cc2c1=O (stereo not drawn) -15.1%
Cc1ccc(CSC2=Nc3ccccc3C3=NC(CC(=O)NC4CCCCC4)C(=O)N23)c(C)c1 (stereo not drawn) -7.51%
CCc1cccc(NC(=O)CNS(=O)(=O)c2ccc3nc(C)sc3c2)c1 -13.3%
COc1ccc2c(c1)c1c(c(=O)n(-c3cccc(C)c3)c(=O)n1CC(=O)Nc1c(C)cc(C)cc1C)n2C -3.64%
Cc1cc(C)cc(NC(=O)CN2C(=O)COc3ccc(S(=O)(=O)Nc4ccccc4)cc32)c1 -11.6%
